# In PubChem BioAssay AID1347165 (National Center for Advancing Translational Sciences (NCATS), 2019):
# The whole screen tested about 220,000 compounds, of which about 5,700 (2.6%) were called active. The inconclusive results got no clear call from the source; some entries with a clear call stand among them for comparison. Calls follow the shape of the dose curve; as a rule, active = well fitted inhibition curve with a large enough effect; inconclusive = small, poorly fitted or top-dose-only effect; inactive = no such curve, though single readings can be large or run the other way. Potencies beside an inconclusive call are fits to weak or partial responses and may not hold up.
# Target: Lysine-specific demethylase 5B (Homo sapiens) (UniProt Q9UGL1)
# Sequence of UniProt Q9UGL1 (Q9UGL1 whole entry, looked up): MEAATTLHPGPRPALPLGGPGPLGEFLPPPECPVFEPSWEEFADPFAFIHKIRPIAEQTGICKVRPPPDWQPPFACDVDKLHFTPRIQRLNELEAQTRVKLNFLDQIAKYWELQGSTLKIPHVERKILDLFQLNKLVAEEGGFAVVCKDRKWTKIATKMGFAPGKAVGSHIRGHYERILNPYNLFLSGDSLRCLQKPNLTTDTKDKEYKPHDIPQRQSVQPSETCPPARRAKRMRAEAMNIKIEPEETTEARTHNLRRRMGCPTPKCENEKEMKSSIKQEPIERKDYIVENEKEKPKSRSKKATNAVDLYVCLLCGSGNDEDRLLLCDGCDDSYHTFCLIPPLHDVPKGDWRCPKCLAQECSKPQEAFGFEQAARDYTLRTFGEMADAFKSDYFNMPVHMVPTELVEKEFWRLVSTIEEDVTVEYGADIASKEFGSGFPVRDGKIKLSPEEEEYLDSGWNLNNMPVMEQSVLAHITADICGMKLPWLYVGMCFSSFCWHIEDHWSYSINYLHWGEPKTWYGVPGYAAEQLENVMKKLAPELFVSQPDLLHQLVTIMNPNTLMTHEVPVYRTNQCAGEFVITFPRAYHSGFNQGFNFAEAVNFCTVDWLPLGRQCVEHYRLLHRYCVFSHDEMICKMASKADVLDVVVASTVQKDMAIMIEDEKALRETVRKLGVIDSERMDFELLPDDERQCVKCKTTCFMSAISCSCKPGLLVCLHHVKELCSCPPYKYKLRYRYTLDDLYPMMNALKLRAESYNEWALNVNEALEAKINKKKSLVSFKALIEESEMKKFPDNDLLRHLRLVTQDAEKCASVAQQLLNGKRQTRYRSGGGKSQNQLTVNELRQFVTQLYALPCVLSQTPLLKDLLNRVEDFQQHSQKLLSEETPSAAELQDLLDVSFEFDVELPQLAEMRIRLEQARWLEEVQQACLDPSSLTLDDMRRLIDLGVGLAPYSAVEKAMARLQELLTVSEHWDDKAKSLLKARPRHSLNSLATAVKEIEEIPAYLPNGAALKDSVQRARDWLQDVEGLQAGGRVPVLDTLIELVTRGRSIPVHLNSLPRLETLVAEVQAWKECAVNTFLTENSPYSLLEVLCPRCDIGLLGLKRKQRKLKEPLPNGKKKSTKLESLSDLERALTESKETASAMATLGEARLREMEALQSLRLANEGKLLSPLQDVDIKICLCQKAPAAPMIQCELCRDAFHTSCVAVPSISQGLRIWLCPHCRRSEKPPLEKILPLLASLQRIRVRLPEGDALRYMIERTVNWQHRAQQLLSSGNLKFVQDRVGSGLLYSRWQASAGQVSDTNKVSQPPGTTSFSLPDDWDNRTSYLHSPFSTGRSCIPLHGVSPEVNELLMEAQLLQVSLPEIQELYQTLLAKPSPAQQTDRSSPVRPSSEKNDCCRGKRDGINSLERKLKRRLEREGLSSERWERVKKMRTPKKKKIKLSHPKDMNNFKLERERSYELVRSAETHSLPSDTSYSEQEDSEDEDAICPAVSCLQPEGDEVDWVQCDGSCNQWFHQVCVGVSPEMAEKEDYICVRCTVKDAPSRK
# Assay: Primary screen for KDM5B Histone Demethylases FDH-coupled qHTS; also: nearly all actives have a fitted effect of over 70% in size; as to activity change, negative = inhibition: 0% is about no effect
# Conditions: FDH-coupled NADH fluorescence (FDH is formaldehyde dehydrogenase); activity change, negative = inhibition: at 57.7 µM (top of the series) unless noted
# Summary of the method: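 Here, H3K4me3 peptide (12.5 µM in substrate mix) is demethylated by KDM5BΔAP, 200 nM final, after 10 min compound exposure. Formaldehyde product is coupled through FDH (0.25 U/mL in mix) to NADH fluorescence; 30-min ΔRFU feeds dose-response curves.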
# Potency is read from the fitted curve at half-maximal effect; tags tell the direction and shape of the fitted curve.
Structure (SMILES),Potency,"activity change, negative = inhibition"
CCCn1c(CSc2nnc(C3CC3)n2-c2ccccc2)nc2cc(S(=O)(=O)N(C)C)ccc21,inactive,
Cc1c(-c2ccccc2)nc2c3ccccc3ccn12,"inconclusive: 20 µM [inhibitor, partial curve, poor fit]",
COc1ccc(N(Cc2cc(CN3CCOCC3)cs2)S(=O)(=O)c2cc(C)cc(C)c2)cc1,inactive,
CCCNC(=O)[C@@H]1Cc2cn(Cc3c(C)noc3C)c3cccc(c23)[C@H](CC(C)C)N1,"inconclusive: 31.6 µM [inhibitor, partial curve, poor fit]",
Cc1ccc([C@H]2C[C@@H](O)[C@@H](O)[C@@H]2N2CCCCC2)cc1,"inconclusive: 28.2 µM [inhibitor, partial curve, poor fit]",
CCCCCc1ccc(-c2ccc(/C=C/C#N)cc2)nc1,"inconclusive: 2 µM [inhibitor, partial curve, poor fit]",
Cc1ccc([S+](=O)([O-])N2CCc3nc(C4CC4)nc(-c4ccc(Cl)cc4)c3C2)cc1,inactive,
CN(C)S(=O)(=O)c1ccc2c(c1)N(CC(=O)N1CCC(C(N)=O)CC1)CCS2,"inconclusive: 17.8 µM [inhibitor, partial curve, poor fit]",
CC(=O)Nc1cccc(NC(=O)CSc2nc(=O)[nH]c3c2CCC3)c1,inactive,
Cc1cc(C)n2nc(N(Cc3cccc(C#N)c3)S(=O)(=O)c3ccccc3)nc2n1,inactive,
COc1ccccc1C(CC(=O)NCC(C)C)c1cn(C)c2ccccc12 (stereo not given),"inconclusive: 28.2 µM [inhibitor, partial curve]",
Cc1ncsc1C(=O)NCc1ccc(N2CCC(C)CC2)nc1,inactive,
COc1ccccc1NC(=O)Nc1cccc(-c2nnc3n2CCCC3)c1,"inconclusive: 22.4 µM [inhibitor, single point]",
CC(OC(=O)c1cc2ccccc2[nH]1)C(=O)NC1CC1 (stereo not given),"inconclusive: 31.6 µM [inhibitor, single point]",
Cc1ccc(-c2nn3c(C)nnc3c3ccccc23)cc1S(=O)(=O)NC(C)(C)CO,"inconclusive: 31.6 µM [inhibitor, single point]",
CCC(C(=O)NCc1nnc2c(-c3nc(C)no3)cccn12)c1ccccc1 (stereo not given),active: 31.6 µM,
CCn1cnc2c1c(=O)n(CC(=O)Nc1ccc3c(c1)OCCO3)c(=O)n2Cc1ccccc1,inactive,
Cc1ccccc1NC(=O)C1CCN(S(=O)(=O)c2cccc3nonc23)CC1,,inconclusive: -30.8% [inhibitor]
COc1ccc(CNC(=O)C2CCN(c3nnc(C)c4c(C)n(-c5ccc(C)cc5)nc34)CC2)cc1,"inconclusive: 31.6 µM [inhibitor, partial curve, poor fit]",
C=CC[n+]1ccn(-c2nc3ccccc3nc2[N-]S(=O)(=O)c2cccs2)c1,"inconclusive: 22.4 µM [inhibitor, partial curve, poor fit]",
COc1cc(OC)cc(C(=O)N[C@@H]2CN(C3CCOCC3)C[C@H]2CN(C)C)c1,"inconclusive: 20 µM [inhibitor, partial curve]",
Clc1ccc(-c2nnc(COc3nncc4ccccc34)o2)cc1,inactive,

Structure (SMILES),Potency,"activity change, negative = inhibition"
Cc1cc(C)cc(NC(=O)c2cc(S(=O)(=O)N3CCCCC3)c[nH]2)c1,"inconclusive: 31.6 µM [inhibitor, single point]",
CCN(CC)C(CNC(=O)c1n[nH]c(=O)c2ccccc12)c1ccccc1 (stereo not given),"inconclusive: 25.1 µM [inhibitor, single point]",
COCCn1c(C)nnc1-c1cc(-c2cccc(O)c2)ccn1,"inconclusive: 31.6 µM [inhibitor, single point]",
N#CCCNc1ccc(Br)cc1,inactive,
c1cn(-c2ccc(Oc3nn[nH]n3)cc2)c(-c2cc3n(n2)CCCNC3)n1,"inconclusive: 12.6 µM [inhibitor, partial curve]",
CCN(C(=O)CCl)C1CCCCC1,inactive,
O=C(Nc1ccc(C(F)(F)F)cc1)C1(c2cccs2)CCOCC1,inactive,
CCCOC(=O)c1cccc(Nc2nc(C(=O)OCC)nc3ccccc23)c1,"inconclusive: 25.1 µM [inhibitor, partial curve, poor fit]",
Cc1cccc(C(=O)NCc2nnc3cc(-c4nc(C)no4)ccn23)c1,active: 25.1 µM,
O=C(Cc1ccccc1)N1CCC2(CC1)CNS(=O)(=O)c1cccnc1O2,"inconclusive: 79.4 µM [inhibitor, partial curve]",
COc1ccc(NC(=O)C(=O)c2cc(C)n(-c3ccc(C)cc3)c2C)cc1Cl,"inconclusive: 12.6 µM [inhibitor, partial curve, poor fit]",
COCCNC(=O)CCn1c(=O)[nH]c2cc(OC)c(OC)cc2c1=O,"inconclusive: 4.47 µM [inhibitor, partial curve, poor fit]",
CN1CCN(c2cc(=O)c3ccnc(Nc4ccccn4)c3o2)CC1,"inconclusive: 35.5 µM [inhibitor, single point]",
CC1(C(=O)N2CCC(c3ccccc3)CC2)CCc2cnc(N3CCOCC3)nc21 (stereo not given),active: 31.6 µM,
O=C(Nc1cc(-c2ccc(F)c(F)c2)no1)c1ccccc1F,"inconclusive: 28.2 µM [inhibitor, partial curve, poor fit]",
Cn1ncc2c(C(=O)NCCc3ccc(Cl)cc3)cc(C(C)(C)C)nc21,"inconclusive: 100 µM [inhibitor, single point]",
CC(C)CCC(C)NC(=O)c1nccnc1N (stereo not given),"inconclusive: 25.1 µM [inhibitor, partial curve, poor fit]",
c1coc(-c2cc(CSc3ccc4c(c3)OCCCO4)no2)c1,inactive,
CCN1CCCC1CNC(=O)c1cc2ccccc2oc1=O (stereo not given),"inconclusive: 25.1 µM [inhibitor, single point]",
Cc1ncc(CN2CCC(N3CCC(C(=O)NCc4ccccn4)CC3)CC2)s1,"inconclusive: 3.55 µM [inhibitor, single point]",
Cc1cc([N+](=O)[O-])ccc1N=C/C(Br)=C/c1ccccc1,"inconclusive: 39.8 µM [inhibitor, single point]",
CCCCOc1ccc2c(-c3ccccc3)cc(=O)oc2c1,"inconclusive: 39.8 µM [inhibitor, single point]",

Structure (SMILES),Potency,"activity change, negative = inhibition"
O=C(C1CCC(CNS(=O)(=O)c2cccs2)CC1)N1CCN(c2ccc(Cl)cc2)CC1 (stereo not given),"inconclusive: 11.2 µM [inhibitor, partial curve, poor fit]",
COC(=O)c1ccccc1NC(=O)CN(c1ccc(Cl)cc1)S(=O)(=O)c1ccc(OC)cc1,"inconclusive: 0.794 µM [inhibitor, partial curve, poor fit]",
CC1=C[C@@H](CNC(=O)C(C)(C)C)[C@H](C(C)C)C[C@H]1Cc1nnc(-c2ccccc2F)o1,"inconclusive: 31.6 µM [inhibitor, single point]",
CC(=O)Nc1ccc(NC(=O)Cn2ccn3nc(-c4ccc(F)cc4)c(CO)c3c2=O)cc1,"inconclusive: 17.8 µM [inhibitor, single point]",
Cc1nc(-c2cc3ccc(OCC(=O)N4CCOCC4)cc3oc2=O)cs1,"inconclusive: 1.78 µM [inhibitor, full curve, poor fit]",
Cc1ccc(-n2ccnc(NCCc3ccccc3)c2=O)cc1C,"inconclusive: 2 µM [inhibitor, full curve, poor fit]",
COc1ccc(-c2cnc(NC(=O)Cc3ccc(F)cc3)c3c2CCO3)cn1,"inconclusive: 35.5 µM [inhibitor, single point]",
O=c1cc2nc(-c3ccccc3F)nc(SCc3ccc(Br)cc3)n2[nH]1,"inconclusive: 2.82 µM [inhibitor, partial curve, poor fit]",
Cc1cccc(Cn2c(SCc3ccc(C(=O)NCc4cccs4)cc3)nc3cccnc32)c1,"inconclusive: 31.6 µM [inhibitor, partial curve, poor fit]",
COc1cc(C)c(C(C)C)cc1S(=O)(=O)N1CCC(C)CC1,inactive,
Cc1ccccc1-n1c2nc(=O)[nH]c(=O)c-2cc2c(Cl)cccc21,"inconclusive: 31.6 µM [inhibitor, partial curve, poor fit]",
C[C@H](O)c1onc(-c2ccccc2)c1C(=O)N1CCOCC1,inactive,
Cc1cccc(C(=O)N2CCCC2c2nc(C3CCOCC3)no2)c1 (stereo not given),"inconclusive: 15.8 µM [inhibitor, partial curve, poor fit]",
CCC1Oc2ccc(NC(=O)c3ccc(C#N)cc3)cc2CN(Cc2ccccc2F)C1=O (stereo not given),"inconclusive: 20 µM [inhibitor, partial curve, poor fit]",
CC1(C)CCc2cc(-c3ccnc(=S)[nH]3)ccc2O1,"inconclusive: 28.2 µM [inhibitor, single point]",
COc1ccc2oc(=O)cc(CN3CCN(C(=O)c4ccccc4Br)CC3)c2c1,"inconclusive: 4.47 µM [inhibitor, partial curve, poor fit]",
CCOC(=O)c1c(NC(=O)c2ccccc2C)sc2c1CCCC2,"inconclusive: 8.91 µM [inhibitor, partial curve, poor fit]",
Cc1cc(C(=O)NCc2cccnc2N2CCCC(O)C2)c(C)o1 (stereo not given),"inconclusive: 22.4 µM [inhibitor, single point]",
CCN(CC)C(=O)CN1CCN(C(=O)c2cc(-c3ccccc3)n[nH]2)CC1,"inconclusive: 14.1 µM [inhibitor, partial curve, poor fit]",
O=C(NCCSCc1ccsc1)C1CC1,inactive,
Cc1cc(C)cc(C(=O)Nc2ccc3oc(-c4cccnc4)nc3c2)c1,"inconclusive: 10 µM [inhibitor, partial curve, poor fit]",
